Hit rate of the full screen: of about 48,000 compounds, about 450 (0.94%) were called active. Another 19% or so got no clear call; they are omitted. Calls come from the whole dose curve; as a rule, active = well fitted inhibition curve with a large enough effect; inconclusive = small, poorly fitted or top-dose-only effect; inactive = no such curve, though single readings can be large or run the other way. The list shows a part of the results.

The assay in a line: Primary qHTS for Identification of Small Molecule Inhibitors of Huntingtin Promoter Activity. Note: nearly all actives have a fitted effect of over 50% in size. The following applies: HEK293 HTT promoter firefly luciferase reporter (activity 0% = vehicle and -100% = no light), 24 h; series mostly up to 57.5 µM; activity change, negative = inhibition: at the top concentration. The gist of the method:
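Quantitative HTS used concentration series of up to 57.5 uM final on HEK293 luciferase reporter cells, 24 h at 37 degrees C. Readout was Dual-Glo firefly luminescence.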
On to `CC(=O)N1CCN(c2csc3ccc(Cl)cc3c2=O)CC1`, for which the “activity change, negative = inhibition” value is inactive: 10.9%.

For `Cc1ccc(NS(=O)(=O)c2ccc3c(c2)n(C)c(=O)n3C)c(C)c1`, the “activity change, negative = inhibition” value was inactive: -15.5%.

For the compound `Cc1cccc(C(c2sc3nc(-c4ccco4)nn3c2O)N2CCOCC2)c1` (stereo unspecified), the “activity change, negative = inhibition” value is inactive: 9.25%.

As to `O=C(NCCc1cccs1)c1ccc(Cn2c(SCc3cccc(F)c3)nc3cccnc32)cc1`, the “activity change, negative = inhibition” value is inactive: -13.5%.

As to `COc1ccc(-c2csc3ncnc(Nc4ccccc4)c23)cc1`, the “activity change, negative = inhibition” value is inactive: -3.66%.

Turning to `Fc1cccc(CN2CCc3nc(Nc4ccc5c(c4)OCCO5)ncc3C2)c1F`, the “activity change, negative = inhibition” value is inactive: -11.6%.

Turning to `CCOc1ccccc1NC(=O)Cn1c(=O)oc2ccccc21`, the “activity change, negative = inhibition” value is inactive: -2.63%.

In the case of `CCOC(=O)c1c(-c2ccccc2)oc2ccc(OCc3ccccc3Br)cc12`, the “activity change, negative = inhibition” value was inactive: -12%.

On to `COc1ccc(NC(=O)Cn2cc(C(=O)c3ccc(C)c(C)c3)c(=O)c3cc(OC)ccc32)cc1`, for which the “activity change, negative = inhibition” value is inactive: -14.9%.

Consider `COc1cc(C2C=C(C(=O)O)Nc3ncnn32)ccc1O` (stereo unspecified), for which the “activity change, negative = inhibition” value was inactive: -6.57%.

`CCOc1ccc2c(c1)c(=O)c(C(=O)c1ccc(CC)cc1)cn2CC(=O)Nc1ccc2c(c1)OCCO2`: the “activity change, negative = inhibition” value was inactive: -15.4%.

In the case of `COc1cccc(NC(=O)Cn2c(=O)n(CCC(=O)NCc3ccccc3OC)c(=O)c3ccccc32)c1`, the “activity change, negative = inhibition” value is inactive: -11.6%.

Consider `COc1ccc(Cl)cc1NC(=O)Cn1c(=O)n2nc(-c3ccccc3)nc2c2ccccc21`, for which the “activity change, negative = inhibition” value is inactive: 3.62%.

As to `Cc1ccc(NC(=O)Cn2cc3c(n2)CCCC3)cc1Cl`, the “activity change, negative = inhibition” value was inactive: -5.24%.

Regarding `CCN1CCc2c(sc(-n3cccc3)c2C(C)NC(=O)Nc2ccc(C(=O)OC)cc2)C1` (stereo unspecified), the “activity change, negative = inhibition” value is inactive: -19.9%.

Regarding `COc1ccc(CNC(=O)c2nn(C)c3c2CSc2ccccc2-3)cc1`, the “activity change, negative = inhibition” value is inactive: -16.3%.

As for `COc1ccc(-c2csc(-c3c(N)c(C(=O)c4ccc(OC)c(OC)c4)n4ccccc34)n2)cc1`, the “activity change, negative = inhibition” value is inactive: -9.51%.

Take `COc1ccc(NC(=O)c2ccco2)cc1NC(=O)c1ccccc1[N+](=O)[O-]`: the “activity change, negative = inhibition” value is inactive: 2.92%.

In the case of `Cc1ccc(NC(=O)Cn2c(=O)n(Cc3ccccc3)c(=O)c3c(C)c(C(=O)N(C)C)sc32)c(C)c1`, the “activity change, negative = inhibition” value is inactive: 0%.

As for `CCN1CCN(C(=O)N[C@@H](C(=O)N[C@@H]2C(=O)N3C(C(=O)O)=C(CSc4nnnn4C)CS[C@H]23)c2ccc(O)cc2)C(=O)C1=O`, the “activity change, negative = inhibition” value was inactive: -1.76%.

For `O=C1Nc2ccc(I)cc2C1=Cc1cc(Br)c(O)c(Br)c1`, the “activity change, negative = inhibition” value is inactive: -3.16%.

`CCc1cccc(C)c1Nc1nn2c(=O)c3ccccc3nc2s1`: the “activity change, negative = inhibition” value was inactive: -16.3%.

For `COc1cc(-c2cc(OC)c3c(C)oc(C)c3c(=O)c2)ccc1OC(=O)c1cccc(C)c1`, the “activity change, negative = inhibition” value is inactive: 1.57%.

Take `Cc1nn(S(=O)(=O)c2ccc(F)cc2)c(C)c1S(=O)(=O)N1CCCCCC1`: the “activity change, negative = inhibition” value is inactive: -8.39%.

For `CC(NN)c1ccccc1` (stereo unspecified), the “activity change, negative = inhibition” value is inactive: -1.88% [at 25.2 µM].

As for `Cc1ccc(C(=O)Nc2c(C(=O)Nc3ccc(C)c(C)c3)sc3nc(C)cc(C)c23)cc1`, the “activity change, negative = inhibition” value was inactive: -29.5%.

Take `CCCc1cc(=O)[nH]c(SCc2nc(-c3ccc(OCC)cc3)no2)n1`: the “activity change, negative = inhibition” value was inactive: -3.83%.

`Cc1c(-c2ccccc2)c(=O)oc2c(CN3CCOCC3)c(O)ccc12`: the “activity change, negative = inhibition” value was inactive: -3.62%.

As for `Cc1ccc(C2C=C(c3ccccc3)Nc3nc(NS(C)(=O)=O)nn32)cc1` (stereo unspecified), the “activity change, negative = inhibition” value was inactive: -0.812%.

Regarding `CCc1cccc(C)c1NC(=O)CSc1nc2ccncc2[nH]1`, the “activity change, negative = inhibition” value is inactive: -36.4%.

Turning to `CCOc1ccc(C2C(C(=O)Nc3ccc(OC)cc3)=C(C)Nc3nc(CCCO)nn32)cc1` (stereo unspecified), the “activity change, negative = inhibition” value is inactive: -12.9%.

Regarding `COc1ccc(NC(=O)C2CCN(c3cc(C)nc4c(-c5ccc(Cl)cc5)c(C)nn34)CC2)cc1`, the “activity change, negative = inhibition” value was inactive: -13.7%.

Take `CCOC(=O)C1CCN(Cc2cn3c(-c4ccc(OC)cc4)nnc3s2)CC1`: the “activity change, negative = inhibition” value was inactive: -3.55%.

Consider `Cc1ccccc1CN1CCCN(CC(=O)Nc2ccc(F)cc2)S1(=O)=O`, for which the “activity change, negative = inhibition” value is inactive: -29.3%.

On to `CCOC(=O)c1c(C)oc2nc(C)nc(NCCc3ccc(Cl)cc3)c12`, for which the “activity change, negative = inhibition” value is inactive: -4.7%.

Turning to `Cc1ccc(NC(=O)Cn2c(=O)n(Cc3ccc4c(c3)OCO4)c(=O)c3oc4ccccc4c32)cc1C`, the “activity change, negative = inhibition” value was inactive: -12%.

For the compound `CC(C)c1ccc(NC(=O)Cn2nnc(C(=O)NCc3ccc4c(c3)OCO4)c2N)cc1`, the “activity change, negative = inhibition” value was inactive: -10.7%.

Take `Cc1ccc(/C=C/C(=O)Nc2ccc3nc(N4CCC(C)CC4)cc(C)c3c2)cc1`: the “activity change, negative = inhibition” value was inactive: -7.91%.

Turning to `CO[C@@]12[C@H](COC(N)=O)C3=C(C(=O)C(C)=C(N)C3=O)N1C[C@@H]1N[C@@H]12`, the “activity change, negative = inhibition” value is inactive: -31.9%.

Consider `Cc1cc(N2CCC(C(=O)Nc3ccc(F)cc3F)CC2)n2nc(C)c(-c3ccc(Cl)cc3)c2n1`, for which the “activity change, negative = inhibition” value was inactive: -10.4%.

For `CCN(c1cccc(C)c1)S(=O)(=O)c1cc2c(cc1C)n(C)c(=O)c(=O)n2C`, the “activity change, negative = inhibition” value was inactive: -6.19%.

Consider `CCOc1ccc(NC(=O)c2sc(-n3nc(C)c(Cc4ccc(Cl)cc4)c3C)nc2C)cc1`, for which the “activity change, negative = inhibition” value is inactive: 7.34%.

For the compound `Cc1nnc(NC(=O)c2nc(SC(C)C)ncc2Cl)s1`, the “activity change, negative = inhibition” value was inactive: -11.2%.

As to `CCc1cccc(NC(=O)c2ccc3c(c2)N(Cc2cccc(Cl)c2)C(=O)c2ccccc2S3=O)c1` (stereo unspecified), the “activity change, negative = inhibition” value was inactive: -4.03%.

For the compound `CCOC(=O)c1c(-c2ccc(C)cc2)csc1NC(=O)c1cc(-c2ccc(OC)cc2)on1`, the “activity change, negative = inhibition” value is inactive: 1.84%.

With `Cc1cccc(N(C)C(=O)CCS(=O)(=O)c2ccc3c(c2)n(C)c(=O)c(=O)n3C)c1`, the “activity change, negative = inhibition” value is inactive: -12.6%.

Turning to `COc1ccc(CCNS(=O)(=O)c2c(C)nc3sc(C)cn3c2=O)cc1OC`, the “activity change, negative = inhibition” value is inactive: -12.1%.

In the case of `Cc1cc(Nc2cccc(C(=O)O)c2)n2nc(C)nc2n1`, the “activity change, negative = inhibition” value was inactive: 2.71%.

On to `CCCn1c2ccccc2c2cnn(CC(=O)NCCN(CC)CC)c(=O)c21`, for which the “activity change, negative = inhibition” value is inactive: -4.83%.

Turning to `Cc1cccc(NC(=O)CN(C)S(=O)(=O)c2ccc3c(c2)c(=O)n(C)c(=O)n3C)c1C`, the “activity change, negative = inhibition” value was inactive: 1.27%.

With `CCOc1c(Cl)cc(CNc2ccc3[nH]c(=O)[nH]c3c2)cc1OC`, the “activity change, negative = inhibition” value was inactive: -19.2%.

`CCCCOc1ccc(C(=O)Nc2cc(-c3cn4cccnc4n3)ccc2OC)cc1`: the “activity change, negative = inhibition” value is inactive: -2.35%.

In the case of `COc1ccc(-n2c(=O)c3c(c4cc(OC)ccc4n3C)n(Cc3cccc(OC)c3)c2=O)cc1`, the “activity change, negative = inhibition” value is inactive: -7.07%.

On to `O=C(CCc1nc(CN2CCN(S(=O)(=O)c3ccc(Cl)cc3)CC2)no1)N1CCCCC1`, for which the “activity change, negative = inhibition” value is inactive: -17.7%.

Take `Cc1cccc(Cn2c(SCc3ccc(C(=O)NCCc4ccccc4)cc3)nc3ccncc32)c1`: the “activity change, negative = inhibition” value is inactive: -32.6%.

Regarding `CCc1cccc(C)c1NC(=O)Cn1ccn(-c2cccc(OC)c2)c(=O)c1=O`, the “activity change, negative = inhibition” value is inactive: 3.18%.

Take `O=C(CSCc1cccc(F)c1)NCc1ccccc1`: the “activity change, negative = inhibition” value was inactive: 58.5%.

As to `Fc1cccc(-n2ncc3c2ncn2nc(COc4ccc(Cl)cc4)nc32)c1`, the “activity change, negative = inhibition” value was inactive: -1.68%.

Regarding `C1CCN2C[C@@H]3C[C@@H](CN4CCCC[C@@H]34)[C@H]2C1`, the “activity change, negative = inhibition” value is inactive: -5.77%.

`CCOc1ccc(C(=O)NCCn2cc(SCC(=O)Nc3ccc4c(c3)OCCO4)c3ccccc32)cc1`: the “activity change, negative = inhibition” value is inactive: -30.9%.

As to `O=C(NCCc1c[nH]c2ccccc12)c1cccnc1`, the “activity change, negative = inhibition” value is inactive: 21.8%.

For the origin of these results see PubChem BioAssay AID1508623 (National Center for Advancing Translational Sciences (NCATS), 2021).
